Assay results taken from paper PMC9911399, “Two distinct binding modes provide the RNA-binding protein RbFox with extraordinary sequence specificity”.
Changes are numbered by the printed parent chain; changes in the protein carry UniProt numbers. Some of the results follow.

T1: RBFOX1 RRM RbFoxmut (Fox-RRM*) (Homo sapiens, UniProt Q9NWB1 109-208, R118D;E147R;N151S;E152T)
T1 sequence: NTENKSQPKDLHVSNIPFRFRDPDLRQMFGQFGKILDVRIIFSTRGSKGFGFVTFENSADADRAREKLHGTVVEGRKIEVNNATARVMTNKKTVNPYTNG

B1: GGGUACA (DNA:RNA)
RNA: GGGAGACCGGAAUUCAGAUUGUCCGGGUACAUUAAAUCCCGUCGUAGCCACCA
DNA 1: CAATCTGAATTCCGGTCTCCC
DNA 2: TGGTGGCTACGACGGGATT
B2: CACGACA (DNA:RNA)
RNA: B1 RNA with G25C, G26A, G27C, U28G
DNA 1: CAATCTGAATTCCGGTCTCCC
DNA 2: TGGTGGCTACGACGGGATT
B3: UGUCGGA (DNA:RNA)
RNA: B1 RNA with G25U, G27U, U28C, A29G, C30G
DNA 1: CAATCTGAATTCCGGTCTCCC
DNA 2: TGGTGGCTACGACGGGATT
B4: AGUCCUC (DNA:RNA)
RNA: B1 RNA with G25A, G27U, U28C, A29C, C30U, A31C
DNA 1: CAATCTGAATTCCGGTCTCCC
DNA 2: TGGTGGCTACGACGGGATT
B5: CCGGGGG (DNA:RNA)
RNA: B1 RNA with G25C, G26C, U28G, A29G, C30G, A31G
DNA 1: CAATCTGAATTCCGGTCTCCC
DNA 2: TGGTGGCTACGACGGGATT
B6: AGAAAAA (DNA:RNA)
RNA: B1 RNA with G25A, G27A, U28A, C30A
DNA 1: CAATCTGAATTCCGGTCTCCC
DNA 2: TGGTGGCTACGACGGGATT
B7: UCACCAG (DNA:RNA)
RNA: GGGAGACCGGAAUUCAGAUUGUCCUCACCAGUUAAAUCCCGUCGUAGCCACCA
DNA 1: CAATCTGAATTCCGGTCTCCC
DNA 2: TGGTGGCTACGACGGGATT
B8: AUUGCGC (DNA:RNA)
RNA: B7 RNA with U25A, C26U, A27U, C28G, A30G, G31C
DNA 1: CAATCTGAATTCCGGTCTCCC
DNA 2: TGGTGGCTACGACGGGATT
B9: GGAAGAA (DNA:RNA)
RNA: B1 RNA with G27A, U28A, A29G, C30A
DNA 1: CAATCTGAATTCCGGTCTCCC
DNA 2: TGGTGGCTACGACGGGATT
B10: ACAGAUU (DNA:RNA)
RNA: B7 RNA with U25A, C28G, C29A, A30U, G31U
DNA 1: CAATCTGAATTCCGGTCTCCC
DNA 2: TGGTGGCTACGACGGGATT
B11: GAUAUAA (DNA:RNA)
RNA: B1 RNA with G26A, G27U, U28A, A29U, C30A
DNA 1: CAATCTGAATTCCGGTCTCCC
DNA 2: TGGTGGCTACGACGGGATT
B12: GUAUCUG (DNA:RNA)
RNA: B7 RNA with U25G, C26U, C28U, A30U
DNA 1: CAATCTGAATTCCGGTCTCCC
DNA 2: TGGTGGCTACGACGGGATT
B13: CAGACUU (DNA:RNA)
RNA: B1 RNA with G25C, G26A, U28A, A29C, C30U, A31U
DNA 1: CAATCTGAATTCCGGTCTCCC
DNA 2: TGGTGGCTACGACGGGATT
B14: AUCAUCC (DNA:RNA)
RNA: B1 RNA with G25A, G26U, G27C, U28A, A29U, A31C
DNA 1: CAATCTGAATTCCGGTCTCCC
DNA 2: TGGTGGCTACGACGGGATT
B15: AGACCAA (DNA:RNA)
RNA: B7 RNA with U25A, C26G, G31A
DNA 1: CAATCTGAATTCCGGTCTCCC
DNA 2: TGGTGGCTACGACGGGATT
B16: AUUGCGG (DNA:RNA)
RNA: B7 RNA with U25A, C26U, A27U, C28G, A30G
DNA 1: CAATCTGAATTCCGGTCTCCC
DNA 2: TGGTGGCTACGACGGGATT
B17: UGCUGUG (DNA:RNA)
RNA: B1 RNA with G25U, G27C, A29G, C30U, A31G
DNA 1: CAATCTGAATTCCGGTCTCCC
DNA 2: TGGTGGCTACGACGGGATT
B18: GGUAUUU (DNA:RNA)
RNA: B1 RNA with G27U, U28A, A29U, C30U, A31U
DNA 1: CAATCTGAATTCCGGTCTCCC
DNA 2: TGGTGGCTACGACGGGATT
B19: ACUUUAA (DNA:RNA)
RNA: B1 RNA with G25A, G26C, G27U, A29U, C30A
DNA 1: CAATCTGAATTCCGGTCTCCC
DNA 2: TGGTGGCTACGACGGGATT
B20: GGAUGCA (DNA:RNA)
RNA: B1 RNA with G27A, A29G
DNA 1: CAATCTGAATTCCGGTCTCCC
DNA 2: TGGTGGCTACGACGGGATT
B21: CCCGGCG (DNA:RNA)
RNA: B7 RNA with U25C, A27C, C28G, C29G, A30C
DNA 1: CAATCTGAATTCCGGTCTCCC
DNA 2: TGGTGGCTACGACGGGATT
B22: AGUGCUC (DNA:RNA)
RNA: B1 RNA with G25A, G27U, U28G, A29C, C30U, A31C
DNA 1: CAATCTGAATTCCGGTCTCCC
DNA 2: TGGTGGCTACGACGGGATT
B23: GCGUGCG (DNA:RNA)
RNA: B1 RNA with G26C, A29G, A31G
DNA 1: CAATCTGAATTCCGGTCTCCC
DNA 2: TGGTGGCTACGACGGGATT
B24: UCCAGUG (DNA:RNA)
RNA: B7 RNA with A27C, C28A, C29G, A30U
DNA 1: CAATCTGAATTCCGGTCTCCC
DNA 2: TGGTGGCTACGACGGGATT
B25: UGAAGAU (DNA:RNA)
RNA: B7 RNA with C26G, C28A, C29G, G31U
DNA 1: CAATCTGAATTCCGGTCTCCC
DNA 2: TGGTGGCTACGACGGGATT
B26: UUUGUAC (DNA:RNA)
RNA: B7 RNA with C26U, A27U, C28G, C29U, G31C
DNA 1: CAATCTGAATTCCGGTCTCCC
DNA 2: TGGTGGCTACGACGGGATT
B27: UUGCCGU (DNA:RNA)
RNA: B7 RNA with C26U, A27G, A30G, G31U
DNA 1: CAATCTGAATTCCGGTCTCCC
DNA 2: TGGTGGCTACGACGGGATT
B28: AAUGAUA (DNA:RNA)
RNA: B1 RNA with G25A, G26A, G27U, U28G, C30U
DNA 1: CAATCTGAATTCCGGTCTCCC
DNA 2: TGGTGGCTACGACGGGATT
B29: GAUACGG (DNA:RNA)
RNA: B7 RNA with U25G, C26A, A27U, C28A, A30G
DNA 1: CAATCTGAATTCCGGTCTCCC
DNA 2: TGGTGGCTACGACGGGATT
B30: CCGAACG (DNA:RNA)
RNA: B1 RNA with G25C, G26C, U28A, A31G
DNA 1: CAATCTGAATTCCGGTCTCCC
DNA 2: TGGTGGCTACGACGGGATT
B31: UAAGAUG (DNA:RNA)
RNA: B7 RNA with C26A, C28G, C29A, A30U
DNA 1: CAATCTGAATTCCGGTCTCCC
DNA 2: TGGTGGCTACGACGGGATT

These binders were tested against T1, RBFOX1 RRM RbFoxmut (Fox-RRM*) (assay: EMSA; HiTS-Eq, 1 nM pool, 10 min; buffer printed only for the single-RNA assays: 10 mM Tris pH 7.5, 150 mM NaCl, 3.4 mM EDTA, 0.001% NP-40, 30 C). Conditions: tags: His6 N-terminal (pET28a); label: 5' 32P.
Procedure, shortened: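 Relative association constants, normalised to the cognate motif, were derived by comparing read counts of each RNA species with those of the control reaction. The RNA sequenced was the free fraction, separated by 8% native PAGE after a 10 min equilibration in 50 µL of 1 nM 5′-radiolabelled RNA (7 randomized nucleotides) with increasing concentrations of purified wild-type or mutant RbFox RRM.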

| Binder | binding signal |
| --- | --- |
| B1 | 0.105 KA relative to UGCAUGU |
| B2 | 0.0562 KA relative to UGCAUGU |
| B3 | 0.0935 KA relative to UGCAUGU |
| B4 | 0.045 KA relative to UGCAUGU |
| B5 | 0.0847 KA relative to UGCAUGU |
| B6 | 0.141 KA relative to UGCAUGU |
| B7 | 0.104 KA relative to UGCAUGU |
| B8 | 0.115 KA relative to UGCAUGU |
| B9 | 0.06 KA relative to UGCAUGU |
| B10 | 0.111 KA relative to UGCAUGU |
| B11 | 0.0789 KA relative to UGCAUGU |
| B12 | 0.17 KA relative to UGCAUGU |
| B13 | 0.0511 KA relative to UGCAUGU |
| B14 | 0.0557 KA relative to UGCAUGU |
| B15 | 0.0887 KA relative to UGCAUGU |
| B16 | 0.0848 KA relative to UGCAUGU |

| Binder | binding signal |
| --- | --- |
| B17 | 0.217 KA relative to UGCAUGU |
| B18 | 0.104 KA relative to UGCAUGU |
| B19 | 0.125 KA relative to UGCAUGU |
| B20 | 0.24 KA relative to UGCAUGU |
| B21 | 0.098 KA relative to UGCAUGU |
| B22 | 0.094 KA relative to UGCAUGU |
| B23 | 0.158 KA relative to UGCAUGU |
| B24 | 0.125 KA relative to UGCAUGU |
| B25 | 0.0683 KA relative to UGCAUGU |
| B26 | 0.126 KA relative to UGCAUGU |
| B27 | 0.0995 KA relative to UGCAUGU |
| B28 | 0.106 KA relative to UGCAUGU |
| B29 | 0.0485 KA relative to UGCAUGU |
| B30 | 0.211 KA relative to UGCAUGU |
| B31 | 0.0888 KA relative to UGCAUGU |
